Source: PubChem BioAssay AID624417 (National Center for Advancing Translational Sciences (NCATS), 2012)
Screen size: about 410,000 compounds; about 6,400 (1.6%) were called active. This list was built around the results that the source calls inconclusive (neither active nor inactive); the mix of calls is not that of the screen. Calls come from the whole dose curve; as a rule, active = well fitted inhibition curve with a large enough effect; inconclusive = small, poorly fitted or top-dose-only effect; inactive = no such curve, though single readings can be large or run the other way. No potency is given beside an inconclusive call; the fits are too rough.

target: Glucagon-like peptide 1 receptor (Homo sapiens) (UniProt P43220); test: qHTS of GLP-1 Receptor Inverse Agonists (Inhibition Mode); conditions: HEK293 GLP-1R CRE-luciferase, luminescence, 24 h, GLP-1R form is constitutively active; activity change, negative = inhibition: at 38.3 µM (top of the series) unless noted; note: nearly all actives have a fitted effect of over 55% in size
Summary of the method: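 Luminescence readout: a drop in cAMP-driven luciferase signal flags inverse agonism at a constitutively active GLP-1R stably expressed in HEK293. Compound exposure lasted 24 hr at 37 deg C, 5% CO2.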
% is set by controls: 0 for no effect and ±100 for the full control effect; potency is the fitted concentration of half-maximal effect; tags give direction and shape of the fitted curve.

UniProt P43220, sequence (P43220 whole entry, looked up): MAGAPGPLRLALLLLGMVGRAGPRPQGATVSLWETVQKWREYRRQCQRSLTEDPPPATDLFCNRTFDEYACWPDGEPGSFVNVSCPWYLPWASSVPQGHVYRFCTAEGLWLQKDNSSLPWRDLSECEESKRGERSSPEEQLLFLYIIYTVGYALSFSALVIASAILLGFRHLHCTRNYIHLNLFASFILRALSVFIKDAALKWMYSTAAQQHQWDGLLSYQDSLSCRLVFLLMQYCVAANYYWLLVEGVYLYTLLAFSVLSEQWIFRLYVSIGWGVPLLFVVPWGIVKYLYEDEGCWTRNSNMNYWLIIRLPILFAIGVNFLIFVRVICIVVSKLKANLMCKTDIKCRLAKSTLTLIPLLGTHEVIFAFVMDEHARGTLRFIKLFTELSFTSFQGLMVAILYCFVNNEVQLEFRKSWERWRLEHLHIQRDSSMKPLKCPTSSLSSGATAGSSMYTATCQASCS

| SMILES | Potency | activity change, negative = inhibition |
| --- | --- | --- |
| CCn1c(SCC(=O)Nc2nc3ccc(C)cc3s2)nc2c(c1=O)SC(C)C2 (centres undefined) | inconclusive [inhibitor, single point] | – |
| CC(NC(=O)C12CC3CC(C1)CC(n1cncn1)(C3)C2)C12CC3CC(CC(C3)C1)C2 (centres undefined) | inconclusive [inhibitor, partial curve] | – |
| COc1ccc([N+](=O)[O-])cc1-c1nc2ccccc2nc1-c1ccccc1 | inconclusive [inhibitor, single point] | – |
| COc1ccc(Cl)cc1NC(=O)C1Cc2cc(S(=O)(=O)N3CCCC3)ccc2N1C(C)=O (centres undefined) | inconclusive [inhibitor, partial curve, poor fit] | – |
| Cc1ccccc1Nc1nc(N)nc(CSCC(=O)Nc2cccc(Br)c2)n1 | inconclusive [inhibitor, partial curve, poor fit] | – |
| S=C(NCc1ccccn1)NN=Cc1ccccn1 | inconclusive [inhibitor, full curve, poor fit] | – |
| COc1ccc(Cc2c(-c3cccc(Cl)c3)nc3cc(C)c(Br)c(C)n23)c(C)c1 | active: 8.91 µM | – |
| O=C1CCN(Cc2ccc(O)cc2)CCN1[C@H](CO)c1ccccc1 | – | inactive: 20.1% |
| Cn1nnc2c(NCc3ccco3)nccc21 | – | inactive: 22.9% |
| CC(C)(C)c1ccc(C(=O)N2CCN(C(=O)c3cccs3)CC2)cc1 | inconclusive [inhibitor, single point] | – |
| CN(CC(=O)Nc1ccc2c(c1)OCCO2)S(=O)(=O)c1ccc(F)cc1 | – | inactive: 9.02% |
| Cc1cc(C)cc(NC(=O)c2ccc(NC(=O)c3ccco3)cc2)c1 | inconclusive [inhibitor, single point] | – |
| CN(C)c1cccc(C(=O)N/N=C/c2ccccc2F)c1 | inconclusive [inhibitor, partial curve, poor fit] | – |
| CCOc1ccc(NC(=O)CN(C)C(=O)c2ccccc2Cc2ccccc2)cc1OCC | inconclusive [inhibitor, single point] | – |
| CCCCN(CC)C(=O)c1oc2ccc(S(=O)(=O)N3CCCC3)cc2c1C | inconclusive [inhibitor, single point] | – |
| CCCCCCN1C[C@H](O)[C@@H](n2cc(-c3ccc(F)cc3)nn2)C[C@@H]1c1ccc(Cl)cc1 | inconclusive [inhibitor, partial curve, poor fit] | – |
| COc1cccc(CC2(CO)CCCN(Cc3cnn(-c4ccccc4)c3)C2)c1 (centres undefined) | inconclusive [inhibitor, partial curve, poor fit] | – |
| Cc1cccn2c(=O)c3cc(C(=O)NC(C)c4ccccc4)c(=N)n(CCCn4ccnc4)c3nc12 (centres undefined) | inconclusive [inhibitor, single point] | – |
| CCCc1ccc2oc(C(=O)N(Cc3nccn3C)C(C)C)c(C)c2c1 | inconclusive [inhibitor, partial curve, poor fit] | – |
| Cc1cccc(C(=O)NC(C(=O)Nc2ccc(S(=O)(=O)Nc3nccs3)cc2)C(C)C)c1 (centres undefined) | – | inactive: -3.39% |

| SMILES | Potency | activity change, negative = inhibition |
| --- | --- | --- |
| COc1ccc(S(=O)(=O)NCCSCc2ccccc2C)cc1Br | inconclusive [inhibitor, single point] | – |
| O=S(=O)(c1ccc(F)cc1)N1CCN=C1SCc1cccc(F)c1 | inconclusive [inhibitor, partial curve, poor fit] | – |
| Cc1ccc(-c2nc3c(Cl)cc(Cl)cc3c(=O)n2O)cc1 | inconclusive [inhibitor, single point] | – |
| CCS(=O)(=O)N1N=C(c2ccc(C)cc2)CC1c1cc2ccc(OC)cc2nc1Cl (centres undefined) | inconclusive [inhibitor, partial curve, poor fit] | – |
| O=C(NCC(c1ccco1)N1CCCC1)c1ccc(Cl)c(S(=O)(=O)N2CCc3ccccc32)c1 (centres undefined) | inconclusive [inhibitor, partial curve, poor fit] | – |
| CN(CCC#N)c1ccc(C=C(C#N)c2cccc(C(F)(F)F)c2)cc1 | inconclusive [inhibitor, partial curve, poor fit] | – |
| COc1ccc(OC)c(NC(=O)CSc2c3c(nc4ccccc24)CCCC3)c1 | inconclusive [inhibitor, single point] | – |
| CC(C)c1cccc(OCCCCN(C)C)c1 | inconclusive [inhibitor, full curve] | – |
| Cc1cccc(N2CCN(C(=O)c3cc(S(=O)(=O)N(C)C)ccc3N3CCCC3)CC2)c1C | inconclusive [inhibitor, single point] | – |
| N#Cc1ccccc1NC(=S)NC(=O)c1cccnc1 | – | inactive: 25.2% |
| COc1ccc(C=C(C(=O)c2ccccc2)c2ccccc2)cc1 | inconclusive [inhibitor, partial curve, poor fit] | – |
| CCOC(=O)C(=NC1CCS(=O)(=O)C1)NNc1cc(Cl)ccc1Cl (centres undefined) | inconclusive [inhibitor, partial curve, poor fit] | – |
| Cc1cc(NC(=O)CCSc2nc(-c3ccco3)cc(C(F)(F)F)n2)n(-c2ccccc2)n1 | inconclusive [inhibitor, single point] | – |
| O=C(COC(=O)c1ccccc1-c1ccccc1[N+](=O)[O-])c1ccccc1 | inconclusive [inhibitor, single point] | – |
| Cc1ccc(NC(=O)N2CCCN(Cc3ccc(F)cc3)C2)cc1C | active: 3.98 µM | – |
| CC(Sc1nc2ccccc2c(=O)n1CC1CCCO1)C(=O)N(C)Cc1ccccc1 (centres undefined) | inconclusive [inhibitor, partial curve, poor fit] | – |
| COc1ccc(/C=C\c2onc(C)c2S(=O)(=O)N2CCC(C(=O)Nc3ccccc3OC)CC2)cc1 | – | inactive: -13.7% |
| CC(NC(=O)Cc1ccc(S(=O)(=O)N2CCOCC2)s1)c1ccc(Br)cc1 (centres undefined) | inconclusive [inhibitor, partial curve, poor fit] | – |
| Cc1cc(C)n(S(=O)(=O)c2cc(Cl)ccc2Cl)n1 | inconclusive [inhibitor, partial curve, poor fit] | – |
